Laboratory results: PubChem BioAssay AID1460 (National Center for Advancing Translational Sciences (NCATS), 2008)
Out of some 270,000 compounds screened, about 5,800 (2.1%) were called active. Roughly 16% stayed inconclusive and do not appear here. Calls follow the shape of the dose curve; as a rule, active = well fitted inhibition curve with a large enough effect; inconclusive = small, poorly fitted or top-dose-only effect; inactive = flat fitted curve, though single readings scatter. The entries are a selection whose mix differs from that of the whole data set. More than one record can exist for a structure, and the calls need not agree.

biological target: Microtubule-associated protein tau (Homo sapiens) (UniProt P10636); assay: qHTS for Inhibitors of Tau Fibril Formation, Thioflavin T Binding; settings: recombinant tau K18 P301L, heparin-induced fibrillization, ThT fluorescence; series mostly up to 57.4 µM; activity, negative = inhibition: at the top concentration; also: nearly all actives have a fitted effect of over 55% in size
In short: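 ThT emission at 510 nm, taken 1 hr after adding 30 uM dye, quantifies aggregates formed when 20 uM heparin acts on human tau K18 P301L for 6 hr at 37 C.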
% is scaled to controls: 0 for no effect and ±100 for the full control effect; potency is read from the fitted curve at half-maximal effect.

Sequence of UniProt P10636 (P10636 whole entry, looked up): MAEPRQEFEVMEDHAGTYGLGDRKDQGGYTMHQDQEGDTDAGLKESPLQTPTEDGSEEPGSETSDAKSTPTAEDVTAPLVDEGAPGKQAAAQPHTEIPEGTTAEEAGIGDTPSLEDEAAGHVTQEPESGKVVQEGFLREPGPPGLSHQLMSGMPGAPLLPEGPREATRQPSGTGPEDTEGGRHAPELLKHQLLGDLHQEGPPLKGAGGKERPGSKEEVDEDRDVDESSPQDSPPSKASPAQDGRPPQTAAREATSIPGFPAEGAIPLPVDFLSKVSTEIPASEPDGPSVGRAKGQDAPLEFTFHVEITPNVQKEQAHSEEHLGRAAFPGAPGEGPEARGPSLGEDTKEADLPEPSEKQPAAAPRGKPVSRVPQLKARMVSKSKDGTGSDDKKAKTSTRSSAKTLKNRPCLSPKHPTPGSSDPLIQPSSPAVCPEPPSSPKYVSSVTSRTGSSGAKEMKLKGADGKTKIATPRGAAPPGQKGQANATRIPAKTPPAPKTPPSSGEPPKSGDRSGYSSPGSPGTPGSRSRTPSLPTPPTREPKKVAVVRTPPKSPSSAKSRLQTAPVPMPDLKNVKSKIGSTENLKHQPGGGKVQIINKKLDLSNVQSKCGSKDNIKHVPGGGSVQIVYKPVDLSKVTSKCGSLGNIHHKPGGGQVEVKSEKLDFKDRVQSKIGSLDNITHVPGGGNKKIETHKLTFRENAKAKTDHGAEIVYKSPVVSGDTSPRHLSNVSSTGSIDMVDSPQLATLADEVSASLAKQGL

activity, negative = inhibition, inactive:
CCO[C@@H]1OC(C(=O)NCc2ccccc2)=C[C@H](c2coc3ccccc3c2=O)[C@H]1CCCO -2.33%
CCCCC1=CC2=CC(=O)C(C)(OC(=O)CC)C(=O)C2=CN1CCCCO (centres undefined) 3.34% [at 11.5 µM]
Nc1ccccc1C(=O)/C=C/c1ccc2c(c1)OCO2 4.91%
Oc1ccc(C2CNCCc3c2cc(O)c(O)c3Cl)cc1 (centres undefined) -18%
COC/C=C/C1=CC2=CC(=O)C(C)(OC(=O)c3cnc4ccccc4n3)C(=O)C2=CN1C(CO)CO (centres undefined) -3.67% [at 11.5 µM]
CCC(C)OC(=O)C1=C(C)O[C@]23OC(N)=C(C#N)[C@]12C(=O)c1ccccc13 (some centres undefined) -7.41%
C#CCNC(=O)C1=C[C@@H](c2cn(C(C)=O)c3ccccc23)C[C@@H](OCc2ccc(CO)cc2)O1 -11.4%
Brc1ccc(C2=NC(Cc3ccccc3)CO2)cc1 (centres undefined) -17.1%
O=C1c2ccccc2C(=O)C1c1ccccc1 -5.93%
COC(=O)/C=C1/S/C(=N/NC(=O)c2ccccc2)NC1=O -12.6%
C=C(C)[C@H]1CC=C(C)/C(=N/NC(=O)CNc2ccccc2OC)C1 -11.3%
NC(=O)c1ccccc1O -3.35%
CCOC(=O)N1CCC(=C2c3ccc(Cl)cc3CCc3cccnc32)CC1 -12.3%
COc1ccc(-c2coc3cc(O)ccc3c2=O)cc1 -19.3%
CCCCC1=CC2=CC(=O)C(C)(OC(=O)CC)C(=O)C2=CN1c1ccc(OC)cc1 (centres undefined) 4.84% [at 11.5 µM]
CCCCC1=CC2=CC(=O)C(C)(OC(=O)CC)C(=O)C2=CN1CCOC (centres undefined) -0.8% [at 11.5 µM]
O=C(CSc1nc2c([nH]c3ccccc32)c(=O)n1-c1ccc(F)cc1)NCc1ccco1 -15.9%

Potency, inactive:
COC(=O)[C@@H](N)CSC/C=C(\C)CC/C=C(\C)CCC=C(C)C
Cc1ccc(N(CC2=NCCN2)c2cccc(O)c2)cc1

Potency, active:
O=c1[nH]n2c(=O)c3c([nH]c2c1N=Nc1ccccc1)CCC3 3.16 µM
O=C1Nc2ccc(Br)cc2/C1=C/C(=O)c1ccc2c(c1)OCO2 25.1 µM
COc1ccc2c(c1OC)C(Cc1ccccc1)N1CCc3cc4c(cc3C1=C2)OCO4 (centres undefined) 15.8 µM
Cc1cc(O)ccc1Nc1nc2ccccc2nc1Nc1ccc(O)cc1C 14.1 µM
CCCCCCC(=O)Nc1nc(C)c(-c2csc(Nc3ccc(Cl)cc3)n2)s1 5.01 µM
Cc1ccc(NC(=S)c2nc3ccccc3[nH]2)cc1 7.94 µM
COc1ccc(N/C=C/C(=O)c2ccc3c(c2)OCO3)cc1OC 5.01 µM
Cc1ccc(N/C=C/C(=O)c2sc(-c3ccccc3)nc2C)cc1 2 µM
O=C(O)C(=O)/C(=C\c1ccc([N+](=O)[O-])cc1)c1ccc2ccccc2n1 15.8 µM
Clc1ccccc1CSc1nnc(-c2ccco2)c(-c2ccco2)n1 17.8 µM
